This is an account of results in ChEMBL document CHEMBL5606460, “ASAP - DENV-2 NS2B-NS3 protease fluorescence single point” (2024).

For orientation: inhibition means the change of the read-out against control, counted positive when it falls.

The assay concerns the target Genome polyprotein (dengue virus type 2) (UniProt P29990).
Where [1] appears, read: Thailand/16681/1984, Concentration 25.0 uM, Number of replicates 1.0.

Structures are written as SMILES. Among all 2,000 compounds or so, about 110 (5.5%) showed an effect of 50% or more. This is one part of the list.

Regarding `CC(C)n1c(CNC(=O)C2CCN(c3ccc(C=O)cc3)CC2)nc2ccccc21`, the inhibition under setting [1] worked out at 12.4%.

As to `c1ccc2c([C@H]3CCCN(Cc4n[nH]c5ccccc45)C3)c[nH]c2c1`, the inhibition by setting is: (Thailand/16681/1984, Concentration 49.5 uM, Number of replicates 2.0, Standard deviation 2.5740974464975066 %) 2.7%; (Thailand/16681/1984, Concentration 99.01 uM, Number of replicates 2.0, Standard deviation 2.264671553414048 %) 5.31%; (Thailand/16681/1984, Concentration 198.0 uM, Number of replicates 2.0, Standard deviation 2.757654979663667 %) 4.66%.

Take `Cc1cc(CO)c2cccc(NC(=O)Cc3c[nH]c4ccccc34)c2n1`: the inhibition (Thailand/16681/1984, Concentration 49.95 uM, Number of replicates 2.0, Standard deviation 1.6396894238375237 %) came out at 1.91% and the inhibition (Thailand/16681/1984, Concentration 99.9 uM, Number of replicates 2.0, Standard deviation 1.2235176174746443 %) was 8.36%.

Regarding `O=Cc1ccc(N2CCC(C(=O)N3CCC4(CC3)CNC(=O)C4)CC2)cc1`, under setting [1], the inhibition was 13.5%.

For `CC(C)(C)c1ccc(CNC(=O)C2CCN(c3ccc(C=O)cc3)CC2)cc1`, the inhibition under setting [1] was found to be 8.12%.

Regarding `COc1c(Cl)cccc1NC(=O)C1CCN(c2ccc(C=O)cc2)CC1`, under setting [1], the inhibition was determined as 13.9%.

Take `c1ccc(-c2coc(CNCc3nnc4ccccn34)c2)cc1`: the inhibition (Thailand/16681/1984, Concentration 49.5 uM, Number of replicates 2.0, Standard deviation 0.7295248163500376 %) is -1.01%; the inhibition (Thailand/16681/1984, Concentration 99.01 uM, Number of replicates 2.0, Standard deviation 0.9556922865251056 %) is -0.811%; the inhibition (Thailand/16681/1984, Concentration 198.0 uM, Number of replicates 2.0, Standard deviation 2.56780972675556 %) amounted to 0.277%.

For the compound `Cc1nnccc1Cn1cc(C2CCNCC2)c(C)n1`, the inhibition is, setting by setting: (Thailand/16681/1984, Concentration 49.5 uM, Number of replicates 2.0, Standard deviation 1.059758229221688 %) -5.29%; (Thailand/16681/1984, Concentration 99.01 uM, Number of replicates 2.0, Standard deviation 7.779121042682183 %) 2.01%; (Thailand/16681/1984, Concentration 198.0 uM, Number of replicates 2.0, Standard deviation 1.1444678313445817 %) -3.21%.

For the compound `O=C(NCc1ccc(-c2ncc[nH]2)cc1)[C@@]1(c2ccc(F)cc2)CCCNC1`, the inhibition (Thailand/16681/1984, Concentration 49.5 uM, Number of replicates 2.0, Standard deviation 0.5643965406042961 %) was -2.16%; the inhibition (Thailand/16681/1984, Concentration 99.01 uM, Number of replicates 2.0, Standard deviation 0.22314615226614037 %) is -1.83%; the inhibition (Thailand/16681/1984, Concentration 198.0 uM, Number of replicates 2.0, Standard deviation 1.098858966940018 %) was -1.02%.

Turning to `CCN1CCN(c2ccc(NC(=O)C3CCN(c4ccc(C=O)cc4)CC3)cc2)CC1`, under setting [1], the inhibition was 13.5%.

On to `Cc1cnccc1NC(=O)c1ccc2c(c1)COCC2`, for which the inhibition runs as follows: (Thailand/16681/1984, Concentration 49.5 uM, Number of replicates 2.0, Standard deviation 2.5121871293930202 %) -1.99%; (Thailand/16681/1984, Concentration 99.01 uM, Number of replicates 2.0, Standard deviation 1.8322256055090813 %) -1.68%; (Thailand/16681/1984, Concentration 198.0 uM, Number of replicates 2.0, Standard deviation 3.8354075529759903 %) -1.51%.

In the case of `CCn1ccnc(N2CCC(c3c[nH]c4ccccc34)CC2)c1=O`, the inhibition reads like this: (Thailand/16681/1984, Concentration 49.5 uM, Number of replicates 2.0, Standard deviation 1.413984957866772 %) 10.9%; (Thailand/16681/1984, Concentration 99.01 uM, Number of replicates 2.0, Standard deviation 1.00361289503378 %) 19.7%; (Thailand/16681/1984, Concentration 198.0 uM, Number of replicates 2.0, Standard deviation 0.25199229832396647 %) 25.7%.

For the compound `O=Cc1ccc(N2CCC(C(=O)N3CC4C[C@H]5CC3C[C@H](C4)C5)CC2)cc1`, under setting [1], the inhibition was 14.5%.

Take `Cn1nc(CN2CCC(c3c[nH]c4cccnc34)CC2)c2cccnc21`: the inhibition (Thailand/16681/1984, Concentration 49.5 uM, Number of replicates 2.0, Standard deviation 4.251865662880804 %) was -3.89%; the inhibition (Thailand/16681/1984, Concentration 99.01 uM, Number of replicates 2.0, Standard deviation 2.598042672716789 %) is -4.7%; the inhibition (Thailand/16681/1984, Concentration 198.0 uM, Number of replicates 2.0, Standard deviation 3.0838970438344875 %) was -4.39%.

With `O=Cc1ccc(N2CCC(C(=O)Nc3cc(Cl)c(F)c(Cl)c3)CC2)cc1`, the inhibition under setting [1] was 13.1%.

For `O=Cc1ccc(N2CCC(C(=O)N3CCC(N4CCOCC4)CC3)CC2)cc1`, under setting [1], the inhibition came to 12.6%.

For the compound `NCc1cccc(NC(=O)[C@]2(NC(=O)OCc3ccccc3)CCc3ccccc32)c1`, the inhibition (Thailand/16681/1984, Concentration 49.5 uM, Number of replicates 2.0, Standard deviation 1.8392146277368244 %) was -5.75%; the inhibition (Thailand/16681/1984, Concentration 99.01 uM, Number of replicates 2.0, Standard deviation 0.17835973092670607 %) is -4.69%; the inhibition (Thailand/16681/1984, Concentration 198.0 uM, Number of replicates 2.0, Standard deviation 1.909535801540281 %) is -3.49%.

Turning to `CCn1ccnc(N2CC[C@H](c3ccn[nH]3)C2)c1=O`, the inhibition reads like this: (Thailand/16681/1984, Concentration 49.5 uM, Number of replicates 2.0, Standard deviation 0.2693433129189313 %) 7.79%; (Thailand/16681/1984, Concentration 99.01 uM, Number of replicates 2.0, Standard deviation 1.1364429028007135 %) 16.3%; (Thailand/16681/1984, Concentration 198.0 uM, Number of replicates 2.0, Standard deviation 0.7874353027004307 %) 30.4%.

With `CCn1c(=O)c(N2CC[C@@H](CO)C2)nc2ccccc21`, the inhibition by setting is: (Thailand/16681/1984, Concentration 49.5 uM, Number of replicates 2.0, Standard deviation 0.8446781408235627 %) 16.3%; (Thailand/16681/1984, Concentration 99.01 uM, Number of replicates 2.0, Standard deviation 1.6946189057395897 %) 33.2%; (Thailand/16681/1984, Concentration 198.0 uM, Number of replicates 2.0, Standard deviation 1.3775046688444705 %) 53.9%.

Take `COc1cc(Cn2cc(C3CCNCC3)c(C)n2)ccn1`: the inhibition is -2.01% (Thailand/16681/1984, Concentration 49.5 uM, Number of replicates 2.0, Standard deviation 0.13149513278089658 %); -2.03% (Thailand/16681/1984, Concentration 99.01 uM, Number of replicates 2.0, Standard deviation 0.6489689125884381 %); -1.67% (Thailand/16681/1984, Concentration 198.0 uM, Number of replicates 2.0, Standard deviation 0.41539689440615796 %).
